Measurements from publication PMC12040169 (PLOS Biology, 2025).
The list shows a part of the results.

What follows are compounds tested on T1, C. trachomatis L2/434/Bu expressing GFP (CTL2-GFP). Settings: total inclusion area; 28.5 h, 10 µM; inhibitor.
T1 construct: L2/434/Bu GFP intracellular growth in HeLa cells
Parameters: species or system HeLa; C. trachomatis total inclusion area by high-content imaging, normalised to DMSO
Outline: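 High-content images of fixed, Hoechst-stained infected cultures supply inclusion area and count (growth) plus nuclei number (viability), complementing bulk GFP/resorufin fluorescence. MIC determination is unchanged from the primary assay.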

SMILES | % of control remaining
CN1CCN(S(=O)(=O)c2ccc(-c3cnc(N)c(-c4ccc(O)cc4)n3)cc2F)CC1 [CBK131449] | 79.8344
N/N=C1\C2CN3CCN(C2)CC1(Cc1ccccc1)C3 [CBK261977] | 112.944
CCCCN1CC(=O)C(c2nc3ccccc3[nH]2)=C1N [CBK287777] | 82.5663
Cc1ccc(NC(=O)/C(C#N)=C/c2ccc(-c3ccccc3C(=O)O)o2)cc1Cl [CBK263208] | 44.1578
C=CCN1C(=O)CC2(C1=O)C(=O)N(C)c1ccc(Cl)cc12 (stereo not shown) [CBK075242] | 101.337
Clc1ccc(-c2nc(-c3ccncc3)no2)c(Cl)c1 [CBK262615] | 93.9366
Cn1ccnc1C1(O)CCN(C(=O)CCc2ccccc2)CC1 [CBK283542] | 94.6947
O=C(NCCc1c[nH]c2ccccc12)c1cc(Br)cnc1N1CCOCC1 [CBK076224] | 110.931
COc1ccc(C(=O)N2CCC3(CCN(CCCCC4NC(=O)NC4=O)C3)C2)cc1OC (stereo not shown) [CBK132169] | 105.069
O=c1[nH]c(=O)c2cc(S(=O)(=O)N3CCc4[nH]c5ccccc5c4C3)ccc2[nH]1 [CBK285949] | 99.5682
COc1ccc(OC(C)C(=O)Nc2cc3oc4ccccc4c3cc2OC)cc1 (stereo not shown) [CBK266751] | 61.1498
CCc1nc2ccc(C(=O)NCCN3CCOCC3)cn2c1N(C)Cc1cc2ccccc2s1 [CBK146561] | 94.1239
OC(CN1CCN(c2ccc(C(F)(F)F)cn2)CC1)c1ccc2c(c1)OCCO2 (stereo not shown) [CBK074707] | 83.3466
COc1ccc(OC)c(C(O)CN2CCCC(C(=O)N3CCCCCC3)C2)c1 (stereo not shown) [CBK286286] | 85.2275
Cc1ccc(S(=O)(=O)NC(=O)N2CC3(C)CC2CC(C)(C)C3)cc1 (stereo not shown) [CBK023512] | 82.3047
O=C(NC1CCS(=O)(=O)C1)c1cc(-c2cccnc2)cnc1NCc1ccc2c(c1)OCO2 (stereo not shown) [CBK076455] | 102.501
Cc1ccc(NC2=NC(C(=O)Nc3ccc(C)c(C)c3)CC(=O)N2)cc1 (stereo not shown) [CBK266718] | 105.735
Cc1ccc(CCC(=O)Nc2nc3c(cc2C#N)CCC3)o1 [CBK306366] | 13.212
CN(CC(=O)O)S(=O)(=O)c1ccc2c(c1)OCCO2 [CBK263904] | 111.956
O=C(CN1CCOCC1)N/N=C/c1ccncc1 [CBK019949] | 50.2807
O=C1CC(c2cccs2)Sc2nc3ccccc3n21 (stereo not shown) [CBK091627] | 92.5545
O=C(c1ccccc1)C(Sc1nnc2sc3ccccc3n12)c1ccccc1 (stereo not shown) [CBK265416] | 104.667
